The results in this text go back to publication PMC12136788.

T1: UNK ZnF1-3 (human, UniProt Q9C0B0 31-174)
T1 sequence: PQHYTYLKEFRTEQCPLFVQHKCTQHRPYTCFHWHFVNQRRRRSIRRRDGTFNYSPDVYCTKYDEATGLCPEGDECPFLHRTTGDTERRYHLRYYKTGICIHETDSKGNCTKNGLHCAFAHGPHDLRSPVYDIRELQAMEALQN

B1: chr9:106594412:106594413:-_ENSMUSG00000040661_ENSMUST00000046502|mus_hu|FALSE|FALSE (ssRNA)
RNA: GGGAGUUCUACAGUCCGACGAUCCUCACCCUGAUGUUCACACUAGGUGCCAUGAACCACCAAACUGACUUCCAUUUAAAGAAAGAUAAAUUCAUUUUUCAGUUUCCCUCUUAGUUCUUCCCUCCCUCCCCUCCCACCUUCACCCAACAGAGGAUUGAGCAUCA
B2: chr17:65346418:65346419:-_ENSG00000197170_ENST00000584008|hu_hu|FALSE|FALSE (ssRNA)
RNA: GGGAGUUCUACAGUCCGACGAUCUCGUAGAGUAUCAAUUAAUCGAAGUUUGAUAGGAAGGUCUGUGAUUUCCUCAACAUAAGUACAGCACUGUUGAACCAUUUUGGCAACAGCUUGUUUUAACUGACUCCGCCUUUUGGACAACAACAGAGGAUUGAGCAUCA
B3: chr1:186286705:186286706:-_ENSG00000047410_ENST00000367478|hu_mus|FALSE|FALSE (ssRNA)
RNA: GGGAGUUCUACAGUCCGACGAUCGAUGCUUGGACAGGCUCCUCUUCCUGCUGGCUAUCAAUUUCUAGGCCUGCCUCUGAACUAAUACCUUCAGACUCCGCCUCUACAAAUACUUCAUCUCCGUCGUCACCUGCUGCUGUUUCGCAACAGAGGAUUGAGCAUCA
B4: chr4:76721835:76721836:+_ENSG00000138768_ENST00000264904|hu_mus|hu_hu_hu_mus_True|88_88 (ssRNA)
RNA: GGGAGUUCUACAGUCCGACGAUCGUUUGGCUGGGGUUUCUGAGACGUCUGGAAUACUAACUCAUGUUUGCUAAUAAAUCCUAGUUUCUCUAUGAAAUUCUCUUUGCCAAUCCUCUUCUCUAUUAGUUGCUUUAGUUUCUCUUUCAACAGAGGAUUGAGCAUCA
B5: chr1:63494365:63494366:+_ENSMUSG00000025964_ENSMUST00000114107|mus_mus|motif|central (ssRNA)
RNA: GGGAGUUCUACAGUCCGACGAUCAGGCAGUGUGAUUUCUUUUUGCACUGCACUGCUGUAGCUGGUAUUUCUGCUGCUGCGGUUUUGUUGCAAUGUGUUGUCUUCAUCUGCCAGGACUCCCAGGGUUUUUUCUGCAGUUUCAUUCAACAGAGGAUUGAGCAUCA
B6: chr3:52290438:52290439:-_ENSG00000164091_ENST00000296490|hu_mus|FALSE|FALSE (ssRNA)
RNA: GGGAGUUCUACAGUCCGACGAUCACACGUAUGUAAUGUGCAUGUCUGCACAAAUGUAUUAAAGUGGACACACACAGUGUUCAAAUACAAACAGAUCAAGGGUCAUAUAUAAAAAGGCUAAAUAUAACAUAUAACACAGGCCUACAACAGAGGAUUGAGCAUCA
B7: chr16:94690093:94690094:+_ENSMUSG00000040785_ENSMUST00000117648|mus_hu|mus_mus_mus_hu_True|78_98 (ssRNA)
RNA: GGGAGUUCUACAGUCCGACGAUCGGGCUGGGAUGACAGCAGACAGCCCUCGAUUCCGGUAAAAAAAAGUCUUAGUCGAUACUAAUUAAAAAGUGUUAAUGAUUUUUGAAAAUCAGAUUACAUCUAUAAAAGAUGAAAAGCAAACAACAGAGGAUUGAGCAUCA
B8: chr7:157177620:157177621:+_ENSG00000105993_ENST00000429029|hu_hu|FALSE|FALSE (ssRNA)
RNA: GGGAGUUCUACAGUCCGACGAUCGCCCAUGCCACUACCACCAAAUGACGUGGAAGAGAAUGAAGUGAGGCCCCCGUGACCUAGUGACCCAAAUGAAGUAAAUCCUGUAUCAAAAGAAGAAAAUCCACUUCCAAAAGACGGAAACAACAGAGGAUUGAGCAUCA
B9: 89614512_89614632_732_3pUTR_ENSG00000111880_ENST00000369485|human|control|control (ssRNA)
RNA: GGGAGUUCUACAGUCCGACGAUCUCAUCUUCGUCUUCAUCAUCCUCAAAACACCAAUCUGGCAAUAGAGGUGGGGGUGGUGCUUCCUCUAUGUCACCAUACCGACGAAAAAGUUCCUUCAAAUAAUCACCCUUGUAGAUUCCUCAACAGAGGAUUGAGCAUCA
B10: chr14:89307221:89307222:+_ENSG00000165533_ENST00000346301|hu_mus|hu_hu_hu_mus_False|38_68 (ssRNA)
RNA: GGGAGUUCUACAGUCCGACGAUCUCCUGUUUGGUUAGUGCCAGGGAGCUUCAAAGAUGUGCCAGGGCGUGGAACUUGAGCAAUAGCAUUUUCAUCCAGCAUCAUUUCAGCAAUUCCUUCCUGGUCCACAUCAAUUUCAUCUAUCAACAGAGGAUUGAGCAUCA
B11: chr1:163112212:163112213:-_ENSG00000143248_ENST00000313961|hu_hu|hu_hu_hu_mus_False|1_88 (ssRNA)
RNA: GGGAGUUCUACAGUCCGACGAUCUUUUAUUAUCAGUAAGAGUGAGUCACAUAGUACGCAAAGUAUUGGAUACAAUAAUCAGGAAACAAACACUAUUGGUCCAGAAUUUAAAACUUUAUGAGCGAAGUGCUGGCACAGGAUUUACAACAGAGGAUUGAGCAUCA
B12: chr5:137354059:137354060:-_ENSG00000031003_ENST00000033079|hu_mus|motif|central (ssRNA)
RNA: GGGAGUUCUACAGUCCGACGAUCGUGAAUAUGCAAGCUGCCAGGUAUGACGGGCUCAGGGAGCUCCUGCAGGAAAAACCGGAGGAGACUAAUGGCUGAGGGGACGUCCGCUUCCUUAACCAAGUCCACCUCUUCUCCACUGUCCAACAGAGGAUUGAGCAUCA
B13: chr14:76904430:76904431:+_ENSMUSG00000022010_ENSMUST00000022587|mus_mus|motif|central (ssRNA)
RNA: GGGAGUUCUACAGUCCGACGAUCCCGUGGAAAAAAAAGAGAGAGGGCGGGAGGGAGCAAGCUCCAGCAGCCUGGUUCAAACGGGAUAAAACCGCCUAGCUGUCUGCAGCUCAGGGCGUGAGAACGGUGGUGCUGGCUCGAGUGCAACAGAGGAUUGAGCAUCA
B14: chr17:57759655:57759656:+_ENSG00000141367_ENST00000269122|hu_hu|FALSE|FALSE (ssRNA)
RNA: GGGAGUUCUACAGUCCGACGAUCUCGAGCCUUCUUACGGGCCAUCUGCAAGUACUUCACCAGUUCUUCCCAGUUUCCACUAGUAUUGGCAGCCUGAACAACUUCCAUGUAGGAGGAAGGAUCAUCUGCUUUGAUAUAAGAAUCCAACAGAGGAUUGAGCAUCA

The other results are listed elsewhere or left out.

This experiment has as its target T1, UNK ZnF1-3. Put plainly: nsRBNS (natural sequence RNA bind-n-seq); RBNS binding buffer (assumed for nsRBNS): 25 mM Tris pH 7.5, 150 mM KCl, 3 mM MgCl2, 0.01% Triton X-100, 500 ug/ml BSA, 20 U/ml SUPERase-In, 4 C; UNK is unkempt and MSI1 is Musashi-1; names of the RNAs are library labels; protein concentration not given here; high values mean tight binding.
Regarding B1, the binding signal was found to be 1.1 enrichment R.

B2 had a binding signal of 0.996 enrichment R.

For the molecule B3, the binding signal is 0.914 enrichment R.

Molecule B4 showed a binding signal of 0.371 enrichment R. In the case of B5 it was 0.155 enrichment R; in that of B6, 0.746 enrichment R; in that of B7, 1.91 enrichment R. B8 yielded a binding signal of 1.56 enrichment R.

As to B9, the binding signal came to 1.01 enrichment R. On to B10, for which the binding signal was determined as 0.962 enrichment R.

Take B11: the binding signal is 1.44 enrichment R. Take B12: the binding signal came out at 0.8 enrichment R.

B13 yielded a binding signal of 1.75 enrichment R. B14 had a binding signal of 0.83 enrichment R.
